# According to paper PMC5892938:
# The list shows a part of the results. At the low end of the ranking the order means little.
# Target: GST-SBP-SLBP (stem-loop binding protein) (UniProt Q14493)
# Assay: targeted RNA Bind-n-Seq;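 note: DESeq read counts versus GST-SBP nonspecific binding control pulldown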
# Conditions: RBNS binding buffer: 25 mM Tris pH 7.5, 150 mM KCl, 3 mM MgCl2, 0.1% Tween, 0.5 mg/mL BSA, 1 mM DTT; 27 nM protein, 750 pM RNA pool; temperature not stated; high values mean tight binding
row,Sequence,binding signal (log2 fold change)
1,GGUCACGUCUCAAUCAACUCUUCCUCAGGAGUUUCCUCCUGUUAACUCAACAGCUCGCAGUCAAG,-0.0571
2,GGUCACGUCUCAAUCAACUCAUCCUCCAGGGAAAGCCCUGGCUUAUUCAACAGCUCGCAGUCAAG,0.233
3,GGUCACGUCUCAAUCAACUCAGAAGAGGGGGGGAAAACCCCUUUGCCCUCCAUAUCAACAGCUCGCAGUCAAG,0.327
4,GGUCACGUCUCAAUCAACUCAUUCUCAGGAGUUUCCUCCUGUUAACUCAACAGCUCGCAGUCAAG,0.007
5,GGUCACGUCUCAAUCAACUCUUUUCCCAGGGAAACCCCUGGCAAAUUCAACAGCUCGCAGUCAAG,0.0061
6,GGUCACGUCUCAAUCAACUCUUUUUCAGGAGUUUACUCCUGUAAUUUCAACAGCUCGCAGUCAAG,-0.22
7,GGUCACGUCUCAAUCAACUCAUUCUCAGGAGUUUUCUCCUGCUUUGUCAACAGCUCGCAGUCAAG,0.116
8,GGUCACGUCUCAAUCAACUCAAAAGAGGGGGGGAAAACCCCUUUACCCUCCUUAUCAACAGCUCGCAGUCAAG,0.244
9,GGUCACGUCUCAAUCAACUCAUUCUCAGGAGUUUACUCCUGUAUACUCAACAGCUCGCAGUCAAG,-0.0344
10,GGUCACGUCUCAAUCAACUCUAUCCCAGGAGUUUUCUCCUGCAAUCUCAACAGCUCGCAGUCAAG,-0.0532
11,GGUCACGUCUCAAUCAACUCUAUGGCCAGGGAAAACCCUGGGAAAUUCAACAGCUCGCAGUCAAG,-0.0425
12,GGUCACGUCUCAAUCAACUCAUUCCCAGGAGUUUACUCCUGUUUAUUCAACAGCUCGCAGUCAAG,0.0478
13,GGUCACGUCUCAAUCAACUCUAUCUCAGGAGUUUCCUCCUGUAAACUCAACAGCUCGCAGUCAAG,-0.0898
14,GGUCACGUCUCAAUCAACUCAUUCUCAGGAGUUUGCUCCUGCAUUUUCAACAGCUCGCAGUCAAG,-0.0661
15,GGUCACGUCUCAAUCAACUCACAAGAGGGGGGGAAAACCCCUUUACCCUCAUCUUCAACAGCUCGCAGUCAAG,0.138
16,GGUCACGUCUCAAUCAACUCUUUUUCCAGGGAAAGCCCUGGCAUUCUCAACAGCUCGCAGUCAAG,0.115
17,GGUCACGUCUCAAUCAACUCAAUUUCAGGAGUUUGCUCCUGUAUACUCAACAGCUCGCAGUCAAG,0.0406
18,GGUCACGUCUCAAUCAACUCUUCCUCAGGAGUUUCCUCCUGCAUUUUCAACAGCUCGCAGUCAAG,-0.0345
19,GGUCACGUCUCAAUCAACUCUUAAGAGGGGGGGAAAACCCCUUUGCCCUCACAUUCAACAGCUCGCAGUCAAG,-0.00592
20,GGUCACGUCUCAAUCAACUCUACUUCAGGAGUUUUCUCCUGCAUAUUCAACAGCUCGCAGUCAAG,-0.00818
21,GGUCACGUCUCAAUCAACUCCUCUGAGGGGGGGAAAACCCCUUUACCCUCUAAAUCAACAGCUCGCAGUCAAG,0.27
22,GGUCACGUCUCAAUCAACUCACAAGAGGGGGGGAAAACCCCUUUACCCUCAUAUUCAACAGCUCGCAGUCAAG,-0.145
23,GGUCACGUCUCAAUCAACUCAUAAGAGGGGGGGAAAACCCCUUUACCCUCCAAUUCAACAGCUCGCAGUCAAG,-0.29
24,GGUCACGUCUCAAUCAACUCUUCUUCCAGGGAAAUCCCUGGUAAUGUCAACAGCUCGCAGUCAAG,0.129

row,Sequence,binding signal (log2 fold change)
1,GGUCACGUCUCAAUCAACUCUUCCUCCAGGGAAAUCCCUGGCUAACUCAACAGCUCGCAGUCAAG,-0.0104
2,GGUCACGUCUCAAUCAACUCAAUCUCCAGGGAAAACCCUGGUAAUCUCAACAGCUCGCAGUCAAG,0.134
3,GGUCACGUCUCAAUCAACUCAUCCCCAGGAGUUUACUCCUGUAUAUUCAACAGCUCGCAGUCAAG,-0.0743
4,GGUCACGUCUCAAUCAACUCAAUCUCAGGAGUUUACUCCUGUUUAUUCAACAGCUCGCAGUCAAG,0.106
5,GGUCACGUCUCAAUCAACUCUAUUUCCAGGGAAAGCCCUGGUUAAUUCAACAGCUCGCAGUCAAG,-0.219
6,GGUCACGUCUCAAUCAACUCUUCCUCAGGAGUUUACUCCUGUAAUCUCAACAGCUCGCAGUCAAG,-0.0707
7,GGUCACGUCUCAAUCAACUCAAUCCCCAGGGAAACCCCUGGUAUAUUCAACAGCUCGCAGUCAAG,0.0769
8,GGUCACGUCUCAAUCAACUCCUACGAGGGGGGGAAAACCCCUUUACCCUCAUCAUCAACAGCUCGCAGUCAAG,0.348
9,GGUCACGUCUCAAUCAACUCUUCUUCCAGGGAAACCCCUGGUAAAUUCAACAGCUCGCAGUCAAG,-0.33
10,GGUCACGUCUCAAUCAACUCUAACGAGGGGGGGAAAACCCCUUUACCCUCAAUUUCAACAGCUCGCAGUCAAG,-0.658
11,GGUCACGUCUCAAUCAACUCAUGUCCAGGAGUUUCCUCCUGCAAUUUCAACAGCUCGCAGUCAAG,-0.0963
12,GGUCACGUCUCAAUCAACUCUUCUUCCAGGGAAAUCCCUGGCAAACUCAACAGCUCGCAGUCAAG,0.309
13,GGUCACGUCUCAAUCAACUCAUCCCCCAGGGAAAUCCCUGGCAUACUCAACAGCUCGCAGUCAAG,0.0425
14,GGUCACGUCUCAAUCAACUCAAUCCCCAGGGAAACCCCUGGCAUUUUCAACAGCUCGCAGUCAAG,0.16
15,GGUCACGUCUCAAUCAACUCAUCGUCCAGGGAAAUCCCUGGCUAAUUCAACAGCUCGCAGUCAAG,-0.0702
16,GGUCACGUCUCAAUCAACUCAUCGUCCAGGGAAAGCCCUGGCAAAUUCAACAGCUCGCAGUCAAG,0.186
17,GGUCACGUCUCAAUCAACUCAUCUCCCAGGGAAACCCCUGGUUUAUUCAACAGCUCGCAGUCAAG,-0.00399
18,GGUCACGUCUCAAUCAACUCAACUUCAGGAGUUUCCUCCUGUUUUCUCAACAGCUCGCAGUCAAG,-0.167
19,GGUCACGUCUCAAUCAACUCAGUCUCCAGGGAAACCCCUGGCAUUUUCAACAGCUCGCAGUCAAG,-0.12
20,GGUCACGUCUCAAUCAACUCAUUAGAGGGGGGGAAAACCCCUUUACCCUCAACAUCAACAGCUCGCAGUCAAG,0.299
21,GGUCACGUCUCAAUCAACUCAAUUCCCAGGGAAAACCCUGGUAUUUUCAACAGCUCGCAGUCAAG,-0.126
22,GGUCACGUCUCAAUCAACUCCUUAGAGGGGGGGAAAACCCCUUUACCCUCCGUAUCAACAGCUCGCAGUCAAG,0.226
23,GGUCACGUCUCAAUCAACUCAACUUCAGGAGUUUACUCCUGUAAUCUCAACAGCUCGCAGUCAAG,-0.18
